Assay results: the supplement of paper PMC5919970
Counter-ions that a name gives are not always drawn. Whole data set: some 2,000 compounds, median “fractional viability relative to vehicle” near 0.92, cut for the lowest 2% near 0.11. This is one part of the list.

System: TYKNU
Test: fractional viability relative to vehicle; TYKNU is a high-grade serous ovarian cancer line; higher = less growth inhibition
Conditions: 72 h, genotype: OPA1 knockout (sgOPA1 #2)
How it was run: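 TYKNU control cells or lentiCRISPRv2 knockout derivatives were plated at 500 cells per well in duplicate into drug-stamped 384-well plates holding a ~2100-compound library at 2 or 10 μM. Culture was in RPMI 1640 with 10% FBS at 37 °C in 5% CO2, with 72 h of drug treatment. Viability was measured by Cell Titer Glo luminescence, and the averaged duplicate treatment wells were normalised to duplicate control wells at the same plate position.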

`N#CC(=C(/N)Sc1ccccc1N)/C(C#N)=C(\N)Sc1ccccc1N` was tested. Which fractional viability (2uM) did it give?
Its fractional viability is 1.36.

And the fractional viability (10uM)?
Its fractional viability is 1.25.

Which fractional viability (2uM) does the source give for `Nc1nc(Nc2ccc(S(N)(=O)=O)cc2)nn1C(=O)c1c(F)cccc1F` here?
The fractional viability was 0.664.

What about the fractional viability (10uM) of the same compound?
Its fractional viability is 0.778.

For `CC(C)c1onc(-c2c(Cl)cccc2Cl)c1COc1ccc(/C=C/c2cccc(C(=O)O)c2)c(Cl)c1`, which fractional viability (2uM) is on record?
Its fractional viability is 1.07.

And the fractional viability (10uM)?
The fractional viability was 0.861.

`NC(=O)CCCSc1nc(N)nc(-c2c(Cl)cc3c4c(cccc24)COC3)n1` was tested. Which fractional viability (2uM) did it give?
The fractional viability was 0.868.

And the fractional viability (10uM)?
Its fractional viability is 0.815.

How did the fractional viability (2uM) turn out when `C=CCN1CCCC1CNC(=O)c1cc2nn[nH]c2cc1OC` (stereo not drawn) [Alizapride HCl] was run?
Its fractional viability is 0.868.

And the fractional viability (10uM)?
The fractional viability was 0.818.

Which results are given for `CC(C)(Oc1ccc(C2CC2(Cl)Cl)cc1)C(=O)O` (stereo not drawn) [Ciprofibrate]?
fractional viability (2uM): 1.04; fractional viability (10uM): 1.02

Which results are given for `Cn1cnc(N)c2ncnc1-2` [3-Methyladenine]?
fractional viability (2uM): 1.15; fractional viability (10uM): 1.1

Which results are given for `CCc1cc(/C(C)=N/OCc2ccc(C3CCCCC3)c(C(F)(F)F)c2)ccc1CN1CC(C(=O)O)C1` [BAF312 (Siponimod)]?
fractional viability (2uM): 0.867; fractional viability (10uM): 0.671

What does the source list for `Cc1cc(CS(=O)(=O)c2ccccc2)cc(OCc2ccc(CN3CCC[C@@H]3CO)cc2)c1`?
fractional viability (2uM): 0.843; fractional viability (10uM): 0.875

`CCN(CCCc1ccccc1)CCCc1ccccc1` [Alverine Citrate] was tested. Which fractional viability (2uM) did it give?
Its fractional viability is 0.87.

And the fractional viability (10uM)?
The fractional viability was 1.05.

What does the source list for `COc1cc2c(cc1OC)CN(CCc1ccc(NC(=O)c3cccc4c(=O)c5cccc(OC)c5[nH]c34)cc1)CC2`?
fractional viability (2uM): 0.772; fractional viability (10uM): 0.955

What does the source list for `Clc1ccc(COC(Cn2ccnc2)c2ccc(Cl)cc2Cl)cc1` (stereo not drawn) [Econazole nitrate]?
fractional viability (2uM): 1.11; fractional viability (10uM): 0.789

Which fractional viability (2uM) does the source give for `NC(=O)NO` [Hydroxyurea] here?
Its fractional viability is 1.25.

What about the fractional viability (10uM) of the same compound?
Its fractional viability is 1.1.

For `Clc1ccccc1C(c1ccccc1)(c1ccccc1)n1ccnc1` [Clotrimazole], which fractional viability (2uM) is on record?
The fractional viability was 0.934.

And the fractional viability (10uM)?
Its fractional viability is 0.909.

For `CC(C)(C)c1ccc(S(=O)(=O)NCc2ccc(C(=O)Nc3cccnc3)cc2)cc1`, which fractional viability (2uM) is on record?
Its fractional viability is 0.306.

And the fractional viability (10uM)?
Its fractional viability is 0.165.

Which fractional viability (2uM) does the source give for `O=S(=O)(O)CCSSCCS(=O)(=O)O` [Dimesna] here?
The fractional viability was 1.09.

And the fractional viability (10uM)?
Its fractional viability is 1.15.

What does the source list for `CO[C@H]1C(=O)[C@]2(C)[C@@H](OC)C[C@H]3OC[C@@]3(OC(C)=O)[C@H]2[C@H](OC(=O)c2ccccc2)[C@]2(O)C[C@H](OC(=O)[C@H](O)[C@@H](NC(=O)OC(C)(C)C)c3ccccc3)C(C)=C1C2(C)C` [Cabazitaxel]?
fractional viability (2uM): 0.752; fractional viability (10uM): 0.531

What does the source list for `CCCCOc1ccc(CC(=O)NO)cc1` [Bufexamac]?
fractional viability (2uM): 1.04; fractional viability (10uM): 0.893

Which results are given for `Cc1ccc(O)c([C@H](CCN(C(C)C)C(C)C)c2ccccc2)c1` [Tolterodine tartrate]?
fractional viability (2uM): 0.966; fractional viability (10uM): 0.849

Which results are given for `Cc1cc(C)cc(NC(=O)Cc2ccc(OC(C)(C)C(=O)O)cc2)c1` [Efaproxiral Sodium]?
fractional viability (2uM): 0.919; fractional viability (10uM): 1.03

Which results are given for `CCN1/C(=C/C(C)=O)Sc2ccc(OC)cc21`?
fractional viability (2uM): 0.965; fractional viability (10uM): 0.87

Which fractional viability (2uM) does the source give for `CCCCC(C=O)NC(=O)C(CC(C)C)NC(=O)C(CC(C)C)NC(C)=O` (stereo not drawn) here?
Its fractional viability is 0.8.

What about the fractional viability (10uM) of the same compound?
Its fractional viability is 0.939.

Which results are given for `CCCCCCCCCCCCCCCCO` [1-Hexadecanol]?
fractional viability (2uM): 0.985; fractional viability (10uM): 0.861

Which fractional viability (2uM) does the source give for `CCOc1ccc(Cc2cc([C@@H]3O[C@H](CO)[C@@H](O)[C@H](O)[C@H]3O)ccc2Cl)cc1` [Dapagliflozin] here?
Its fractional viability is 1.01.

And the fractional viability (10uM)?
Its fractional viability is 0.974.

Which results are given for `CN(C)CCN1C(=O)c2cccc3cc(N)cc(c23)C1=O` [Amonafide]?
fractional viability (2uM): 0.909; fractional viability (10uM): 0.627

Which results are given for `O=c1cc(CN2CCOCC2)occ1OCCCCCSc1ccnc2cc(C(F)(F)F)ccc12`?
fractional viability (2uM): 0.828; fractional viability (10uM): 0.915

With `O[C@@H]1CO[C@H]2[C@@H]1OC[C@@H]2O` [Isosorbide] as the compound, how does the fractional viability (2uM) read?
Its fractional viability is 1.06.

What about the fractional viability (10uM) of the same compound?
Its fractional viability is 0.809.

For `Cc1c(O)cccc1C(=O)N[C@@H](CSc1ccccc1)[C@H](O)CN1C[C@H]2CCCC[C@H]2C[C@H]1C(=O)NC(C)(C)C` [Nelfinavir Mesylate], which fractional viability (2uM) is on record?
The fractional viability was 1.07.

What about the fractional viability (10uM) of the same compound?
Its fractional viability is 0.781.

Which fractional viability (2uM) does the source give for `Nc1ccn([C@@H]2O[C@H](CO)[C@@H](O)[C@H]2O)c(=O)n1` [Cytidine] here?
Its fractional viability is 0.886.

And the fractional viability (10uM)?
The fractional viability was 1.09.

`CC(C)NCCCn1c(Sc2cc3c(cc2I)OCO3)nc2c(N)ncnc21` was tested. Which fractional viability (2uM) did it give?
Its fractional viability is 0.428.

What about the fractional viability (10uM) of the same compound?
The fractional viability was 0.48.

Which fractional viability (2uM) does the source give for `CN(C)CCC(c1ccccc1)c1ccccn1` (stereo not drawn) [Pheniramine Maleate] here?
Its fractional viability is 1.14.

What about the fractional viability (10uM) of the same compound?
The fractional viability was 0.886.

How did the fractional viability (2uM) turn out when `COc1ccc2cc1Oc1ccc(cc1)C[C@H]1c3c(cc4c(c3Oc3cc5c(cc3OC)CCN(C)[C@@H]5C2)OCO4)CCN1C` [Cepharanthine] was run?
Its fractional viability is 0.99.

What about the fractional viability (10uM) of the same compound?
The fractional viability was 0.289.

For `NC1=N[C@@]2(c3cc(NC(=O)c4ccc(F)cn4)ccc3F)COC[C@H]2CS1`, which fractional viability (2uM) is on record?
Its fractional viability is 1.08.

And the fractional viability (10uM)?
Its fractional viability is 1.

`Cc1c(OCC(F)(F)F)ccnc1C[S+]([O-])c1nc2ccccc2[nH]1` (stereo not drawn) [Lansoprazole] was tested. Which fractional viability (2uM) did it give?
Its fractional viability is 1.06.

What about the fractional viability (10uM) of the same compound?
The fractional viability was 0.987.

Which fractional viability (2uM) does the source give for `O=C1CCc2c(ccc3ccccc23)O1` [Splitomicin] here?
The fractional viability was 0.879.

And the fractional viability (10uM)?
Its fractional viability is 0.803.

For `CC[C@@H]1C(=O)N(C)c2cnc(Nc3ccc(C(=O)NC4CCN(C)CC4)cc3OC)nc2N1C1CCCC1`, which fractional viability (2uM) is on record?
Its fractional viability is 0.822.

And the fractional viability (10uM)?
Its fractional viability is 0.144.

What does the source list for `O=S(=O)(N=Cc1c(O)ccc2ccccc12)c1cccs1`?
fractional viability (2uM): 0.704; fractional viability (10uM): 0.914

For `CCS(=O)(=O)N1CCC([C@@H](C)n2c(C)c(C(=O)NCc3c(OC)cc(C)[nH]c3=O)c3ccccc32)CC1`, which fractional viability (2uM) is on record?
Its fractional viability is 0.776.

What about the fractional viability (10uM) of the same compound?
The fractional viability was 0.879.

Which fractional viability (2uM) does the source give for `Fc1ccc(CNc2ncnc3ccc(F)cc23)cc1` [Spautin-1] here?
The fractional viability was 0.813.

What about the fractional viability (10uM) of the same compound?
Its fractional viability is 0.799.

Which fractional viability (2uM) does the source give for `CN(C)[C@@H](CCOc1cccc2ccccc12)c1ccccc1` [Dapoxetine HCl] here?
The fractional viability was 1.04.

What about the fractional viability (10uM) of the same compound?
Its fractional viability is 0.755.

How did the fractional viability (2uM) turn out when `CCCC(CCC)C(=O)O` [Divalproex Sodium] was run?
The fractional viability was 0.99.

And the fractional viability (10uM)?
The fractional viability was 1.16.

`CCCC(CCC)C(=O)O` [Valproic acid sodium salt (Sodium valproate)] was tested. Which fractional viability (2uM) did it give?
The fractional viability was 1.05.

What about the fractional viability (10uM) of the same compound?
The fractional viability was 1.01.

How did the fractional viability (2uM) turn out when `CC(C)c1noc(N2CCC(COc3ccc(-c4ccc(S(C)(=O)=O)cc4)nc3)CC2)n1` was run?
The fractional viability was 1.01.

And the fractional viability (10uM)?
The fractional viability was 1.

With `O=C(NC1CCNCC1)c1n[nH]cc1NC(=O)c1c(Cl)cccc1Cl` as the compound, how does the fractional viability (2uM) read?
The fractional viability was 0.667.

And the fractional viability (10uM)?
The fractional viability was 0.685.

How did the fractional viability (2uM) turn out when `O=CN1CC/C(=C/c2ccc3c(c2)OCO3)C1=O` was run?
The fractional viability was 0.774.

What about the fractional viability (10uM) of the same compound?
Its fractional viability is 0.838.

`CC[C@H](Nc1ncnc2[nH]cnc12)c1nc2cccc(F)c2c(=O)n1-c1ccccc1` [CAL-101 (Idelalisib, GS-1101)] was tested. Which fractional viability (2uM) did it give?
Its fractional viability is 1.06.

And the fractional viability (10uM)?
Its fractional viability is 0.992.

For `CC(C)(C)c1cc(/C=C(\C#N)C(N)=S)cc(C(C)(C)C)c1O` [Tyrphostin AG 879], which fractional viability (2uM) is on record?
Its fractional viability is 0.693.

What about the fractional viability (10uM) of the same compound?
Its fractional viability is 0.4.

For `CCC(=O)NCC[C@@H]1CCc2ccc3c(c21)CCO3` [Ramelteon], which fractional viability (2uM) is on record?
The fractional viability was 1.16.

What about the fractional viability (10uM) of the same compound?
Its fractional viability is 0.907.

For `COC1=CC(=O)C[C@@H](C)[C@]12Oc1c(Cl)c(OC)cc(OC)c1C2=O` [Griseofulvin], which fractional viability (2uM) is on record?
The fractional viability was 0.824.

What about the fractional viability (10uM) of the same compound?
The fractional viability was 0.66.
